About 2,200 (0.71%) of roughly 310,000 compounds showed an effect of 50% or more. The effect is printed as a negative number. The list shows a part of the results.
target: human ether-à-go-go-related gene (hERG) potassium channel (human, UniProt Q12809); assay: primary screen, population patch clamp on CHO cells stably expressing hERG
Sequence (Q12809 whole entry, looked up): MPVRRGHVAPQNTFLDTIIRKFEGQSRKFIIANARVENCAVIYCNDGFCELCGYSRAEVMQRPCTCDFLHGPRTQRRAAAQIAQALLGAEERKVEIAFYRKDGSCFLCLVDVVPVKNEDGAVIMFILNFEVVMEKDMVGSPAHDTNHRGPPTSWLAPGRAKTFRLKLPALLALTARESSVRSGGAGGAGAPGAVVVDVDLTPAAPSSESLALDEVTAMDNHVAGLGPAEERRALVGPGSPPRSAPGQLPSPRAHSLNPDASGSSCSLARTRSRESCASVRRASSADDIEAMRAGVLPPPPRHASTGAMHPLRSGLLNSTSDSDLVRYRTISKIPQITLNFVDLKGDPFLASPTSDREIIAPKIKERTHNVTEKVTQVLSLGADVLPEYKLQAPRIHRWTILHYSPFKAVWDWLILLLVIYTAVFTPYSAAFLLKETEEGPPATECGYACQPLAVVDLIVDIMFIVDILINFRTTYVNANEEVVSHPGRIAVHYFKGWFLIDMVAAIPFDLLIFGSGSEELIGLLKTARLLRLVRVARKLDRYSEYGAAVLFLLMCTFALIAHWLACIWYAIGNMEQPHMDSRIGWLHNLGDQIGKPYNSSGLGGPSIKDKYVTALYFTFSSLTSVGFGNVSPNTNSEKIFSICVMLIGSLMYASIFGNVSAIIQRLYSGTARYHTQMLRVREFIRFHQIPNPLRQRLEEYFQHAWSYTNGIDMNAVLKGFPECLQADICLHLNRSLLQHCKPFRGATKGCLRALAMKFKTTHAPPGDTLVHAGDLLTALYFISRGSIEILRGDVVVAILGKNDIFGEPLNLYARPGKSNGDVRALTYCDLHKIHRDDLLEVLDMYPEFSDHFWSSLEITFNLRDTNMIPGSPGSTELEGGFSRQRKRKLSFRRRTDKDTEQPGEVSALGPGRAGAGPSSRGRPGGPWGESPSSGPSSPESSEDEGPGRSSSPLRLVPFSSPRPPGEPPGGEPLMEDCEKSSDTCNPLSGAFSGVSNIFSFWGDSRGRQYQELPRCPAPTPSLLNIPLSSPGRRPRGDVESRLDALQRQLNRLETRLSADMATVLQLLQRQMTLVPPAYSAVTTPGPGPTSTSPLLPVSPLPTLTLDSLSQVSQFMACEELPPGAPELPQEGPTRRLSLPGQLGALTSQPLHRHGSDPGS

| SMILES | hERG current change (%, negative = inhibition) at 1uM [%] |
| --- | --- |
| Cc1cc(C)c(C#N)c(SCC(=O)NC(C)(C)C)n1 | -16.7 |
| CC(C)Cc1cc(-c2ccco2)c(C#N)c(N)n1 | 7.21 |
| CC1(C)CC(=O)C=C(NCc2ccccc2)C1 | 11.9 |
| O=C1N/C(=N/N=C/c2ccco2)SC1Cc1ccccc1 (centres unmarked) | 8.44 |
| COc1ccc(CCNC2CC(=O)N(CCc3ccc(OC)c(OC)c3)C2=O)cc1 (centres unmarked) | 7.42 |
| COc1ccc(CCN(C)C(=O)c2ccc(OCC(=O)N3CCOCC3)c(OC)c2)cc1OC | 13.4 |
| CN(C)C(=O)c1cc(C(=O)c2c(F)cccc2F)c[nH]1 | 5.83 |
| CC(C)[C@H](NC(N)=O)C(=O)Nc1ccc2c(c1)CCC2 | 1.21 |
| O=C(COc1ccc(S(=O)(=O)N2CCCC2)cc1Cl)N1CCN(c2ccccc2)CC1 | -4.84 |
| O=C(CSc1ccc(F)cc1)Nc1ccc(N2CCOCC2)c(Cl)c1 | 8.55 |
| Cc1cc(O)c(NC(=O)c2ccco2)cc1C | 7 |
| O=C(COC(=O)/C(=C/c1cccs1)c1cccs1)NCc1ccccc1Cl | 7.49 |
| CCOc1ccc(NC(=O)CSc2nnc(-c3ccncc3)n2CC2CCCO2)cc1 (centres unmarked) | 7.6 |
| CS(=O)(=O)N1CCC(Oc2cccc(C(=O)NCCCOc3cccnc3)c2)CC1 | 1.51 |
| C/C=C/C(=O)Nc1nnc(-c2ccccc2C)s1 | 2.82 |
| COc1cccc(NC(=O)Cc2cn(C)c3ccccc23)c1 | 5.36 |
| Cc1c(C)c2ccc(OCC(=O)N[C@@H](Cc3ccccc3)C(=O)O)cc2oc1=O | 18.5 |
| Cl.O=C(CSC1=NCCN1)Nc1cccc(C(F)(F)F)c1 | -8.1 |
| O=C(Cn1cnc2ccccc21)Nc1cccc([N+](=O)[O-])c1 | 11.1 |
| CCCn1cc(SCC(=O)NC2CCCC2)c2ccccc21 | 11.4 |
| Cc1cc(Oc2ccc(=O)n(C)n2)nc(=S)[nH]1 | 11 |
| CCCc1ccc(-c2c(C)sc(NC(=O)c3ccnn3C)c2C#N)cc1 | 10.6 |
| Cc1ccc(NC(=S)NCCCN2CCOCC2)cc1C | 7.13 |

| SMILES | hERG current change (%, negative = inhibition) at 1uM [%] |
| --- | --- |
| COC(=O)c1cc(NC(=S)Nc2cc(Cl)cc(Cl)c2)cc(C(=O)OC)c1 | -4.12 |
| NC(=O)Cc1cn(-c2ncc(C(F)(F)F)cc2Cl)c2ccccc12 | -3.61 |
| O=c1[nH]c(-c2ccccc2)c(-c2ccccc2)nc1[N+](=O)[O-] | 12.1 |
| O=C(NCC1CCCO1)C(c1cccnc1)N(C(=O)Cc1cccs1)c1ccccc1 (centres unmarked) | 13.8 |
| CC(=O)N1CCN(Cc2nc3cc(NC(=O)NC4CCCCC4)ccc3n2C)CC1 | 12.9 |
| Cc1cccc(-n2c(=S)[nH]c3nc4c(cc3c2=O)COC(C)(C)C4)c1 | 11.9 |
| COc1cccc(-c2nc3ccccc3c(=O)n2NC(=O)c2cccnc2Cl)c1 | 16.6 |
| COC(=O)c1cc(Nc2cc(C)c3c(O)cccc3n2)cc(C(=O)OC)c1 | 0.104 |
| CC(=O)NC1(c2ccccc2)CCN(c2cc(C)nc(-c3ccccc3)n2)CC1 | -1.62 |
| CCOc1ccc(/C=C/C(=O)OCC(=O)NCCc2ccc(OCC)c(OCC)c2)cc1OC | -1.72 |
| CCC(C)(C)n1nnnc1C(c1cc2cc(C)ccc2[nH]c1=O)N1CCCC1 (centres unmarked) | -0.91 |
| Cc1ccc(NCc2ccc(Cl)nc2)c(NCc2ccc(Cl)nc2)c1 | 6.92 |
| COc1cc(CNc2ncn[nH]2)cc(Br)c1OC | 11.6 |
| CCOC(=O)C1(CCOC)CCN(C(=O)c2sccc2C)CC1 | 13 |
| CC(=O)CCC(=O)N1CCCC(N2CCN(c3cccc(Cl)c3)CC2)C1 (centres unmarked) | 8 |
| CC(C)(C)NC(=O)NC(=O)CSc1ncc(C(F)(F)F)cc1Cl | 2.07 |
| CC(C)(C)c1ccc(C(=O)NCC(=O)OCCN2C(=O)c3ccccc3C2=O)cc1 | 9.49 |
| O=C(CN(c1cccc(Cl)c1)S(=O)(=O)c1ccc(Cl)cc1)NCc1ccccn1 | -9.69 |
| CC(C)(C)C(=O)Nc1cc(S(=O)(=O)Nc2ccc(Cl)cc2)ccc1Cl | 1.82 |
| O=[N+]([O-])c1ccc(N2CCN(c3ccccc3O)CC2)c(Cl)c1 | 10.6 |
| COc1ccc(N2C(=O)CC(N3CCC(C(N)=O)CC3)C2=O)cc1 (centres unmarked) | 10.2 |
| O=C(CNC(=O)c1ccc2c(c1)OCCO2)N/N=C/c1ccc(Cl)cc1 | 14.4 |
| CCOc1cc(Br)cc(/C=C2\SC(=Nc3ccccc3)NC2=O)c1O | 19.6 |

| SMILES | hERG current change (%, negative = inhibition) at 1uM [%] |
| --- | --- |
| O=C(/C=C/c1ccc(F)cc1)NC(=S)NNC(=O)[C@H]1C[C@@H]1c1ccccc1 | 11.6 |
| COc1ccc(CNC(C)C2COc3ccccc3O2)c(OC)c1.O=C(O)C(=O)O (centres unmarked) | -22.2 |
| Cc1nn(Cc2ccccc2)c(C)c1C(=O)NCCCN1CCCC1=O | -5.45 |
| CCOc1ccc(NC(=O)CSc2nc3c(c(=O)n2C)SC(C)C3)cc1 (centres unmarked) | 9.29 |
| CCN1CCN(c2oc(COc3ccc(-c4ccccc4)cc3)nc2C#N)CC1 | 10.1 |
| COc1cc(NC(=O)c2ccccc2)c(OC)cc1NC(=O)CN1C(=O)NC2(CCCCC2C)C1=O (centres unmarked) | 5.92 |
| Cc1ccc(CSCc2ccc(C(=O)NC3CCCC3)o2)cc1 | -11.2 |
| O=C(COc1ccc(Cl)cc1)NNC(=O)C(=O)N1CCCCC1 | -2.26 |
| O=C(CCn1c(=O)c2cccn2c2ccc(F)cc21)NCc1cccc(F)c1 | 1.76 |
| NC(=O)c1ccccc1[N+](=O)[O-] | 9.84 |
| COc1ccc(Nc2cc(C(=O)NCc3ccccn3)c3ccccc3n2)c(OC)c1 | 16.7 |
| CCC(=NCCc1ccccc1)c1c(O)n(C2CCCCC2)c(=O)[nH]c1=O | 6.79 |
| CC(=O)NC(C)C12CC3CC(CC(C(=O)O)(C3)C1)C2 (centres unmarked) | 15.6 |
| CCOC(=O)N1CCN(C(=O)c2ccc(CNS(=O)(=O)c3ccc(C)cc3)cc2)CC1 | -13.4 |
| O=C(COC(=O)c1cc(S(=O)(=O)N2CCCCC2)ccc1N1CCOCC1)NCCc1ccc(F)cc1 | -1.34 |
| Cn1ncc(Br)c1NC(=O)c1cc(Cl)cc(Cl)c1 | -6.02 |
| O=C(NCCC1=CCCCC1)c1ccc2c(=O)n3c(nc2c1)CCCCC3 | -1.26 |
| CCC(CC)C(=O)Nc1cccc(C(=O)NC(C)(C)C)c1 | 5.75 |
| O=C(Cc1ccc(F)cc1)Nc1ccc(S(=O)(=O)N2CCCCC2)cc1 | 8.53 |
| O=[N+]([O-])c1cc(-c2ccc(/C=N\n3cnnc3)o2)cc([N+](=O)[O-])c1 | 5.84 |
| O=C(NC(=S)Nc1ccccc1N1CCCC1)c1ccccc1Br | 16.8 |
| CCOC(=O)c1cc2n(c1N)-c1ccccc1C2=O | -2.29 |
| Cc1oc2ccc(OCc3c(F)cccc3Cl)cc2c1C(=O)O | 12 |

| SMILES | hERG current change (%, negative = inhibition) at 1uM [%] |
| --- | --- |
| CC1=C(c2ccc(F)cc2)[N+](=O)C(C)(C)N1[O-] | 13.5 |
| CCOC(=O)NNc1ccc(C(F)(F)F)cn1 | 15.1 |
| O=C1CC(c2ccc(S(=O)(=O)NCCOc3ccccc3)cc2)CN1 (centres unmarked) | 11.9 |
| CCN(CC)S(=O)(=O)c1cccc(NC(=O)c2ccc(Br)cc2)c1 | 8.94 |
| O=C(/C=C/c1cccc([N+](=O)[O-])c1)c1ccc2c(c1)OCCO2 | 4.79 |
| COc1ccc(-c2csc3ncnc(N4CCN(S(=O)(=O)c5ccc(Cl)s5)CC4)c23)cc1 | -1.02 |
| COc1ccc(-n2ncc3c(=O)n(Cc4c(F)cccc4Cl)cnc32)cc1 | 11.3 |
| CSc1cccc(CN2CCCC(CO)(Cc3cccc(Cl)c3)C2)c1 (centres unmarked) | -0.44 |
| COc1ccc(CCNC(=O)CS(=O)Cc2nc(-c3ccccc3Cl)oc2C)cc1OC (centres unmarked) | 9.09 |
| COc1ccc(Cc2nnc(NCCO)[nH]c2=O)cc1 | 16.3 |
| C#Cc1ccc(CN2CCN(CCc3ccccc3)C(CCO)C2)cc1 (centres unmarked) | -15.3 |
| CCCN(CC(=O)Nc1ccc(NC(C)=O)cc1)CC(=O)Nc1ccc(F)c(F)c1F | 10.9 |
| Cc1cc(SCC#N)n2nc(C)c(-c3ccc(Cl)cc3)c2n1 | 20.9 |
| Cc1ccc(NC(=O)COC(=O)c2ccco2)cc1 | 10.6 |
| Cc1cc(Br)cn2ccnc12 | 3.34 |
| O=c1[nH]c(=S)[nH]c2c1C(c1ccc(Br)cc1)c1c([nH]c(=S)[nH]c1=O)O2 | 8.87 |
| COc1cccc(C(=O)O/N=C(\N)CS(=O)(=O)c2ccccc2)c1 | 7.62 |
| Cc1cccc(NC(=O)CCSc2nncn2C)c1 | 22.8 |
| O=C(NNc1c2ccccc2nc2ccccc12)c1ccccc1Cl | 10 |
| Cc1ccsc1C1Nc2ccc3ncccc3c2C2=C1C(=O)CC(C)(C)C2 (centres unmarked) | 15 |
